Laboratory results as given in PubChem BioAssay AID686979 (National Center for Advancing Translational Sciences (NCATS), 2013).
Hit rate of the full screen: of about 420,000 compounds, about 50,000 (12%) were called active. This list was built around the results that the source calls inconclusive (neither active nor inactive); the mix of calls is not that of the screen. Calls come from the whole dose curve; as a rule, active = well fitted inhibition curve with a large enough effect; inconclusive = small, poorly fitted or top-dose-only effect; inactive = flat fitted curve, though single readings scatter. No potency is given beside an inconclusive call; the fits are too rough.
% is set by controls: 0 for no effect and ±100 for the full control effect; potency is the fitted concentration of half-maximal effect; tags give direction and shape of the fitted curve.

Assay: qHTS for Inhibitors of human tyrosyl-DNA phosphodiesterase 1 (TDP1): qHTS in cells in presence of CPT; note: nearly all actives have a fitted effect of over 55% in size
Settings: chicken DT40 Tdp1-/-;hTDP1 cells + 20 nM CPT, ATP luminescence, 48 h; activity change, negative = growth inhibition: at 46.2 µM (top of the series) unless noted
Method in brief: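 Chicken DT40 Tdp1-/- cells complemented with human TDP1, 400 cells/well, exposed to compounds plus 20 nM camptothecin for at least 48 h at 37 C; viability read as ATP content by CellTiter-Glo luminescence.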
In the case of `Nc1nc(N)c(N=O)c(Nc2cccc(Cl)c2)n1`, the Potency is reported as active: 5.8 µM.
With `CCCCc1ncc(CN2CCC(n3nccc3NC(=O)c3ccccc3OC)CC2)[nH]1` the Potency was inconclusive [inhibitor, single point].
For `CCC(C)NC(=O)CSc1c2c(nc3ccccc13)CCCC2` (centres undefined), the Potency was inconclusive [inhibitor, single point].
With `COc1cc(CN(C)Cc2nc3cc(C(F)(F)F)ccc3c(=O)[nH]2)ccc1OC(F)F` the Potency was inconclusive [inhibitor, single point].
In the case of `O=C(O)c1ccc(N2CC3CC(C2)c2cccc(=O)n2C3)c(NC(=S)Nc2ccc(Br)cc2)c1` (centres undefined), the Potency is reported as inconclusive [inhibitor, single point].
For `CCCCCCCC(O)CC(CC1CCCCC1)C(=O)NN` (centres undefined), the Potency was inconclusive [inhibitor, single point].
In the case of `O=C(Cn1ccc(NC(=O)OCc2ccccc2)nc1=O)NCCCc1ccccc1`, the Potency is reported as inconclusive [inhibitor, single point].
In the case of `O=C(NC1CCCCC1)c1cccc(Cn2cc(Cl)cn2)c1`, the activity change, negative = growth inhibition is reported as inconclusive: -33.7% [inhibitor].
For `CCCS(=O)(=O)N1CCCC(C(=O)NCCCN(CC)c2cccc(C)c2)C1` (centres undefined), the Potency was inconclusive [inhibitor, single point].
With `Cc1nn(-c2ccc(Cl)cc2)c2[nH]c(=O)c(CNCc3ccc4c(c3)OCO4)cc12` the Potency was active: 18.4 µM.
With `CN(C)c1ccc(/C=C(/NC(=O)c2ccccc2)C(=O)N/N=C/c2ccc([N+](=O)[O-])c(O)c2)cc1` the Potency was inconclusive [inhibitor, single point].
With `Cc1cc2oc(=O)cc(CN3CCCc4ccccc43)c2cc1C` the Potency was inconclusive [inhibitor, single point].
For `O=C(N/N=C/c1cn(-c2ccccc2)nc1-c1cccnc1)c1ccccc1`, the Potency was active: 23.1 µM.
With `COC(=O)CC1Oc2ccccc2-n2cc(-c3ccccc3)nc21` (centres undefined) the Potency was active: 14.6 µM.
With `CC(C)C[C@H]1CNC(=S)N1C[C@H]1CCCN1C[C@H](CC(C)C)N1C[C@H](Cc2ccc(O)cc2)N(CC2CCCCCC2)C1=S` the Potency was active: 16.4 µM.
For `CC1CCN(C(=O)CSc2c(C(C)C)cnc3c2c(=O)n(C)c(=O)n3C)CC1`, the Potency was active: 25.9 µM.
For `O=S(=O)(c1ccccc1)N1CC=C(c2ccccc2)CC1`, the Potency was inconclusive [inhibitor, partial curve].
For `CNc1nc(Nc2ccc(C(=O)OC)cc2)c2sccc2n1`, the Potency was active: 13 µM.
For `Cc1ccc(O)c(C(=O)c2cc(C#N)c(=O)n(C(C)c3ccccc3)c2)c1` (centres undefined), the Potency was inconclusive [inhibitor, single point].
